# The campaign covered roughly 360,000 compounds. About 2,600 (0.72%) were called active. Inconclusive results, whose numbers are uncertain, are shown with a selection of clear calls. The call rests on the fitted dose curve; in most records, active means well fitted inhibition curve with a large enough effect; inconclusive means small, poorly fitted or top-dose-only effect; inactive means no such curve, though single readings can be large or run the other way. Potencies beside an inconclusive call are fits to weak or partial responses and may not hold up.
# Experiment: Primary qHTS for Inhibitors of ATXN expression; further: nearly all actives have a fitted effect of over 55% in size
# Conditions: HEK-293 ATXN2-luciferase reporter, luminescence, 24 h; activity change, negative = inhibition: at 57 µM (top of the series)
# Procedure, shortened: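 ATXN2-luciferase reporter cells (luciferase flanked by upstream and downstream ATXN2 gene portions) were treated 24 h at 37 °C with compounds at up to 57 uM. SteadyGlo luminescence gave expression; GF-AFC fluorescence gave viability.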
# On the % scale 0 is the no-effect control and ±100 the full control effect; potency means the concentration at half of the fitted maximal effect; tags describe the fitted curve by direction and shape.
SMILES,Potency,"activity change, negative = inhibition"
Cc1cc(NC(=O)CSc2nc3sc(C)c(C)c3c(=O)n2C2CCCC2)no1,"inconclusive: 12.6 µM [inhibitor, partial curve, poor fit]",
Cc1nn(-c2ccc([N+](=O)[O-])cc2)c2c1C(c1cccc(Br)c1)N1C(=N2)C(=O)Nc2ccccc21 (stereo not given),,inactive: -14%
Cc1ccn2cc(-c3cccc(NC(=O)C(C)C)c3)nc2c1,,inactive: 1.37%
O=C(NC1CCCCCCC1)C1CCN(c2nc3ccccc3o2)CC1,"inconclusive: 25.1 µM [inhibitor, partial curve, poor fit]",
COc1ccc(Cn2nnnc2C(c2cc3ccc(OC)cc3[nH]c2=O)N2CCCCCC2)cc1 (stereo not given),,inactive: -1.75%
Oc1ccc2ccccc2c1N=Nc1nccs1,active: 3.55 µM,
CN(Cc1cnc2nc(N)nc(N)c2n1)c1ccc(C(=O)NC(CCC(=O)O)C(=O)O)cc1C(F)(F)F (stereo not given),"inconclusive: 0.282 µM [inhibitor, full curve, poor fit]",
CCC(CO)Nc1ccn2nc(-c3ccccc3)cc2n1 (stereo not given),,inactive: 81.1%
CCn1cc(CN2CCCC(CNS(=O)(=O)c3cccc4cccnc34)C2)cn1 (stereo not given),"inconclusive: 6.31 µM [inhibitor, single point]",
COc1cc2c(c(OC)c1OC)-c1ccc(OC)c(=O)cc1[C@@H](N(C)CC#CCO)CC2,,inactive: -11.4%
CN(c1ccccc1)S(=O)(=O)c1cccc(NC(=O)c2ccc3ncsc3c2)c1,"inconclusive: 39.8 µM [inhibitor, single point]",
CCOC(=O)N1CCc2c(sc(NCc3ccc(OCC)cc3)c2C(=O)Nc2ccc(OC)cc2OC)C1,active: 12.6 µM,
Cc1ccc(Nc2c([N+](=O)[O-])c(=O)oc3ccccc23)cc1,"inconclusive: 33.6 µM [inhibitor, single point]",
O=C(NC1CCCC1)c1ccc(CSc2nc3ccncc3n2Cc2ccccc2F)cc1,,inactive: 5.11%
CC[C@H](C)C(C(=O)N1CCN(C(=O)OC(C)(C)C)CC1)n1cc(C(CO)NC(=O)OC(C)(C)C)nn1 (stereo not given in full),,inactive: 3.85%
COc1ccc(CCN(C)CC(O)COC(c2ccc(F)cc2)c2ccc(F)cc2)cc1OC (stereo not given),,inactive: -19.7%
C[C@H](NCc1ccc(OCc2cccc(F)c2)cc1)C(N)=O,active: 19.3 µM,
COc1ccc(C(CNC(=O)c2cccc(S(=O)(=O)N3CCCC(C)C3)c2)N(C)C)cc1 (stereo not given),,inactive: -11.5%
COc1cc(OC)cc(C2=NCCN2)c1,,inactive: -5.55%
Cc1ccc(N2NC(=O)/C(=C\c3cc4c(cc3[N+](=O)[O-])OCO4)C2=O)cc1C,"inconclusive: 14.1 µM [inhibitor, single point]",
CCN(CC)CCNC(=O)c1ccc(NC(=O)c2cccc(S(=O)(=O)N3c4ccccc4CC3C)c2)cc1 (stereo not given),"inconclusive: 14.1 µM [inhibitor, partial curve]",
Cc1nn2c([nH]c(=O)c3ccccc32)c1C=O,,inactive: -2.44%
CC(C)N(c1ccccc1)c1ccc(NC(=O)CCl)cc1,"inconclusive: 37.7 µM [inhibitor, single point]",

SMILES,Potency,"activity change, negative = inhibition"
COc1ccc(C(=O)CC(=O)Nc2ccc([N+](=O)[O-])cc2)cc1,"inconclusive: 37.7 µM [inhibitor, single point]",
COc1ccc(-c2cc3c(=O)n(CC(=O)NCCCN4CCC(Cc5ccccc5)CC4)ncn3n2)cc1,"inconclusive: 2.82 µM [inhibitor, full curve, poor fit]",
COc1ccccc1CNc1cc(-c2ccccc2)nc2nncn12,"inconclusive: 39.8 µM [inhibitor, single point]",
CCCNC(=O)c1ccc2c(=O)c(O)c(-c3cccc(Br)c3)[nH]c2c1,active: 22.4 µM,
CC1=NN(c2nc(N)nc(/C(C#N)=C/c3ccc([N+](=O)[O-])o3)n2)C(C)(C)C1,"inconclusive: 26.7 µM [inhibitor, single point]",
N#Cc1cc2c(nc1SCC(O)CS(=O)(=O)Cc1ccc(Cl)cc1)CCCC2 (stereo not given),"inconclusive: 31.6 µM [inhibitor, partial curve, poor fit]",
Cc1ccc(NC(=S)NC(NC(=O)c2ccco2)C(Cl)(Cl)Cl)cc1 (stereo not given),,inactive: -14.7%
Cc1cc(C)c(C#N)c(SCc2ccccc2)n1,,inactive: -2.59%
CCc1ccc(NC(=O)c2ccc3c(c2)N(Cc2ccc(C)cc2)CCS3)cc1,,inactive: 35.1%
CC1(C)N=C2C(=[N+]1[O-])CCC/C2=N\O,"inconclusive: 35.5 µM [inhibitor, single point]",
O=C(Nc1ccccc1)OC1CCCCc2cccnc21 (stereo not given),,inactive: 14.4%
CCOC(=O)c1c(/N=C/N(C)C)sc(/C=N/Nc2ccccc2)c1-c1ccc(Cl)cc1,"inconclusive: 35.5 µM [inhibitor, partial curve, poor fit]",
O=C(NCC(c1cccs1)N1CCOCC1)C1CCN(S(=O)(=O)c2c(Cl)cccc2Cl)CC1 (stereo not given),,inactive: 0.691%
Cc1cc(NC(=O)CSc2nc(C(C)C)nc3sc4c(c23)CCCC4)no1,"inconclusive: 31.6 µM [inhibitor, partial curve, poor fit]",
CCOC(=O)c1sc(NC(=O)c2ccc(C)o2)nc1C,,inactive: 8.38%
Cn1c(=O)[nH]c(=O)c2c1nc(N1CCCCCC1)n2Cc1cccc2ccccc12,"inconclusive: 39.8 µM [inhibitor, partial curve, poor fit]",
O=C(Nc1ccc(Cc2ccncc2)cc1)C1CCC(N2C(=O)C3C4C=CC(C4)C3C2=O)CC1 (stereo not given),"inconclusive: 15.8 µM [inhibitor, partial curve, poor fit]",
Cc1ccc(C(=O)Nc2ccc(Nc3ccccc3)cc2)cc1C,,inactive: -0.351%
Cc1cccc(-c2noc(CN(C(=O)COc3ccc(C(C)C)cc3)C(C)C)n2)c1,"inconclusive: 35.5 µM [inhibitor, partial curve, poor fit]",
Fc1ccc(-n2nnnc2-c2ccccc2Cl)cc1,,inactive: 0.0434%
C[C@H](CO)N1C[C@H](C)[C@@H](CN(C)C(=O)Nc2ccc(C(F)(F)F)cc2)Oc2ccc(NC(=O)C3CCCCC3)cc2C1=O,"inconclusive: 39.8 µM [inhibitor, single point]",
COc1ccc(C2=NS(=O)(=O)N(C)C(C(=O)Nc3cc(C)ccc3O)=C2)cc1OC,inactive,

# Reference: PubChem BioAssay AID1745845 (National Center for Advancing Translational Sciences (NCATS), 2022)
